The full ranking holds about 2,300 sequences; the median of “median log2 fold change of GCK-ALFA target abundance (FLAG IP / Myc IP barcode read proportion)” is about 0.095, and the lowest 2% start at about -0.47. The list shows a part of the results.
B1: LC3A_28_843 (protein)
chain: SKTEKDIKKALAEAEEAAKKKESKVITINVYKGDTQEEIDAIIKALEEIAEILKDLPNQSIIVNFEEPIDQEHQDAIIDKAEEIEKKYPNITVIIALPEE
B2: LC3A_free_0_2118 (protein)
chain: KKTVVEVVVILDESVDEETAEKIYEELKKKAEELAKENGGEVKSSLSKSDGRYIITIEITFDTEDIDLALEVEDELVKIAEEILKKAGVEATIFSSVYLE
B3: LC3A_102_132 (protein)
chain: SIEEKAKELLEKVLKEIEEFLEEDDSLSEEEKERILELARKATELTIKNTITEEQHGFVDIVAEDEREEALEEIEKISPEVAEKLKKLLEETREELKKFL
B4: LC3A_147_498 (protein)
chain: VKVKIEFENVSEELKKAIEELAKELEKLAKKYKGEILVKVIIDILDKNGGYARIEIEAYVENEEEAKELIDEIIDLVEEFYEKNKDLISAVVVSAEIEEP
B5: LC3A_free_46_2405 (protein)
chain: YVAEIEIDLLADSREKAEAARDAIEAAAREIAAEHGAEIEIESEIEEEPDGTVFVTIKITLRAEDEETLLAAVNDIIDAAEEIAKEHGASIIISYEISKE
B6: LC3A_23_604 (protein)
chain: KYLVSLTVDFIAEPEEAKEIVEKLKEAVEEILEKNKDLVVEHEIDVEFTELPDGRTLVEVDIDIIIDSTKEEAEEIANELTKAASEVAPDGVISSEVEEL
B7: LC3A_28_1093 (protein)
chain: SALDKSLEAALAETRAAAAAGEEVLVTITITDDATEEDIEKLKETLEEIAEIGKSLPRLTVVIDLEGKNQEEKANIISEFADELEEKYPNLTIIIALEEE
B8: LC3A_free_46_2318 (protein)
chain: YKAEISIDLYGIDKEKAEKAVEEIVKKAKEIAKKYGLKLEIKVNIEKNEDGTYYVNIDITLEGDDKEKLEAAVNEIIAAVDEIAEKYGASYVISYEIEEE
B9: LC3A_28_1137 (protein)
chain: MEIVEEARKQIREDAEKDKDEPDVLLRVRLTGEVTVEEAREIMDIVEEEVEKLKDKEKIYVLVEALEPISQEVLDEILDRGDEIEKKFPNVDVIVALPED
B10: LC3A_28_1038 (protein)
chain: SALQAAAEAALAEAEKQLAEGDEAVVTLDVPPTPKEEAVATVKAFLDRLIELSKKYGNKKIHVVINYDGDQETLDAIIDIAEEAEEKNPNLTVIIAYDDK
B11: LC3A_147_429 (protein)
chain: YVTDVDIDILTKDAEEEVLAMARAIKEELEARGYKVTLEINVEELENGEKFIDIRITIETATLEEAQAAADYVVDRFDELEEKLKDKILGSIISVDIEKA
B12: LC3A_132_245 (protein)
chain: EEEEAEKLKKELEEKLKKLEESLDDLEKVKKLVAEIEELLEEAKKKLSPETALEIFEYVSDKLDEIAEKAEKAGKKDVARLIENASMYADGLAIEEELKL
B13: LC3A_28_956 (protein)
chain: SALEEALKKAIEEAKKAAEKGEPAVITIKVPGDADEEDIEKVIEALREIAEILKDVKGAAIIVDVDGKVKQEHIDKIAEEAERIEKEYPNVTVIIALDEE
B14: LC3A_3_1422 (protein)
chain: MEERLEEALEALREAGWSEETLEAFREFVELLLERGAEEEAEEAIELVLENKDLSSERLLEVLEEAIALLKTPGVSPEEAIEKLKELLTIAKNEQEIIEL
B15: LC3A_147_418 (protein)
chain: GVLEFSIDILGKLTDEEIEELVKALEATARAHGAEVKSEVKVEELPGGERYVEITLTLTGVAKEDAQALFNALVDTVDEFIEKNKDKIKGAIISHEYIET
B16: LC3A_free_0_2110 (protein)
chain: MKIRGVVTVLTLEKISEEKAERLEEKAREIAERFAKRTGLEVELEVERKDGYLTITVTVIAEGKSREEVLDLLFEIERELLEAFEEEGVEAISSIEIEEL
B17: LC3A_3_1609 (protein)
chain: SEELVEENLKRLREAGLSEKVLEAARKVLEALAKKGFEEAAKTLTEELLKAKDLPDERLLATLEEILKVVETEDLNEEELIKIIKEEFRVARLEAEIIEL
B18: LC3A_3_1446 (protein)
chain: AEELREEALELLKERGASEETIEAAKELFDELIKKGYLESLKLVLEWLKKVKDASDEFLLEAFKSLLELVKTSDLSPEEMKKKIEEELNSFESELEIEEL
B19: LC3A_free_39_2197 (protein)
chain: SEEEREEAIEELLKLAREEGEEAEELARELIKLLGEKLEYAKELLELAKEAKEAGVDLKEVLKEALELAKKLKAEGKSEEEIAEAVLELIRDYINLIPID
B20: LC3A_28_969 (protein)
chain: MDIDEELEEALKKAKEAKEKGEPTVITIKVPGTTNEEDTEKIIEALEEIAEILKDIKGAAIIIDIDGDVPQENITKLLNKAEEIEKKYPNITVIFELDEK
B21: LC3A_28_713 (protein)
chain: MELEKSIEEALEEARRAAERGEEAVITIKVEGEATEEETEKVMEAIEEIAEITKDLKSTTIIVDVDGKVPQEHIDKIADRAEEVEERYPNVTVIIALDEE
B22: LC3A_28_774 (protein)
chain: MDVKENVERAIKEAKEAKERGEETVIEIKIPDGATAEDIDIVIKGLEEIAEITKDMKRVSVVVDIDGGVKQEHIDKLLDKAEEIEEKYPNVTVIFALDEE
B23: LC3A_147_422 (protein)
chain: YKATVTVDLIVKGDAEEALAAIDELTAELLAEGADKVEIERERDPETGEIWVTVTITKTTATLEEAQAFADAVIDRFEALEAKYKDKLKIGAISVEIEEA
B24: LC3A_28_1265 (protein)
chain: AAMEARIAAFLAAAEAARAAGEPAVLTLSIGGDATAEDVDRAIAALRRAAELLRDIPGTAIVIDVDADVAQENVDRLMAAAEEVEAATGRVTVIIALEDA
B25: LC3A_28_703 (protein)
chain: SMLEKNIEKAIEEAKKAAEKGEEAVITIKVPSTATQEDIEKVIEALEEIAEITKDLKSTSIIVDVEGGVKQEYIDKLIDKGEEIEKKYPNVTVIIALDEE
B26: LC3A_61_2041 (protein)
chain: MEEEFEELLEELKELGLSEETLELLEEIYEKDPEGAIALAKEIVEALKAGLKPEVVEELVEETLERVKAAETPEEVRAIIAEAIEEVRDLINLIPLEDLR
B27: LC3A_28_764 (protein)
chain: MSIADEVAAAIAEAREAAARGEPAVITIKVPAGATQEDIDLVIAGMREIAEITKDMESTAIIVDVDSGVPQENIDKLADAGEEIEKKYPNVTVIIALDED
B28: LC3A_28_984 (protein)
chain: MDIAEQIDALIAEARAAAAAGEPRVFTLKIPSTATEEDIEKAIAGLREIGAILADVPGSAIVIDVESGVKEEHIDKLADAAEEVEAANPNVTVIIALDEE
B29: LC3A_102_157 (protein)
chain: KIEELLEEGERRIRELAEELAETLSPEEAEELRELVERALELLRRYAEELKIGSQHDFETVEGVAAELELEELIRRLEEMGAEEIARALRETLEELKKLA

Molecular target: MAP1LC3A, Q9H492
Experiment: median log2 fold change of GCK-ALFA target abundance (FLAG IP / Myc IP barcode read proportion) (log2 ratio); each designed protein is fused to an ALFA-tag nanobody in HEK293 cells to bring the named protein to FLAG-tagged glucokinase (GCK); Myc marks an untargeted standard; higher = target protein stabilised (more abundant)
Details: target protein: 3xFLAG-MCP-GCK-ALFA reporter; HEK293 landing pad (RPLP)
Method in brief: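 An ALFA-nanobody-fused binder library was recombined into HEK293 landing-pad cells and induced with 2 μg mL^−1 doxycycline. Cells were transfected with a plasmid expressing a FLAG-tagged target and a Myc-tagged standard. After 48 h, lysates underwent anti-FLAG and anti-Myc immunoprecipitation, and circular RNA barcodes were reverse transcribed, amplified and sequenced. Target abundance is the per-binder median log2 ratio of FLAG to Myc barcode read proportions. Barcodes needed ≥10^−7 proportion in both replicates, binders ≥3 barcodes per replicate, and a 10^−6 pseudocount was added; the two replicates were pooled.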

Going from B1 to B2, the “median log2 fold change” value falls from 0.382 to -0.193.

Going from B3 to B4, the “median log2 fold change” value rises from -0.0891 to 0.165.

B5 and B6 are within 0.2 log units of each other in “median log2 fold change” value: -0.113 for the first, -0.0448 for the second.

First: B7
Second: B8
The “median log2 fold change” value of the first is higher: 0.0472 for the first, -0.208 for the second.

B9 and B10 are within 0.2 log units of each other in “median log2 fold change” value: 0.025 for the first, 0.0235 for the second.

Going from B11 to B12, the “median log2 fold change” value rises from -0.271 to -0.0179.

Compared with B13, B14 is higher in “median log2 fold change” value: -0.0851 for the first, 0.338 for the second.

Compared with B15, B16 is higher in “median log2 fold change” value: -0.0605 for the first, 0.395 for the second.

B17 and B18 are within 0.2 log units of each other in “median log2 fold change” value: 0.246 for the first, 0.262 for the second.

B19 and B20 are within 0.2 log units of each other in “median log2 fold change” value: 0.226 for the first, 0.372 for the second.

Going from B21 to B22, the “median log2 fold change” value falls from 0.194 to -0.308.

B23 and B24 are within 0.2 log units of each other in “median log2 fold change” value: 0.0883 for the first, -0.0511 for the second.

Compared with B25, B26 is lower in “median log2 fold change” value: 0.264 for the first, 0.0626 for the second.

B27 and B28 are within 0.2 log units of each other in “median log2 fold change” value: -0.103 for the first, 0.0378 for the second.

B29 was tested, and the “median log2 fold change” value was 0.214.

— the supplement of paper PMC12632987
